{"source": "PubChem BioAssay AID1347120", "about": "(National Center for Advancing Translational Sciences (NCATS), 2019)", "note": "Values joined by “and” are separate entries in the source; they are usually repeats but may differ in a detail not shown here. Identical values can stand only once. In all, about 390,000 compounds went through this assay and about 930 (0.24%) were called active. The inconclusive results got no clear call from the source; some entries with a clear call stand among them for comparison. The call rests on the fitted dose curve; in most records, active means well fitted activation curve with a large enough effect; inconclusive means small, poorly fitted or top-dose-only effect; inactive means no such curve, though single readings can be large or run the other way. Potencies beside an inconclusive call are fits to weak or partial responses and may not hold up. Potency means the concentration at half of the fitted maximal effect; tags describe the fitted curve by direction and shape.", "data": [{"experiment": "qHTS for Suppressors of FUS Proteinopathy: Primary screen using FUS-linked yeast assay; further: nearly all actives have a fitted effect of over 55% in size;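 on growth rescue (activation): plate controls were DMSO vehicle for no effect and reference control for full effect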", "settings": "S. cerevisiae FUS-expressing, OD600, 24 h; Potency: growth rescue; growth rescue (activation): at 76.6 µM (top of the series)", "procedure,_shortened": "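Quantitative HTS measuring growth restoration of FUS-toxic yeast. Galactose-induced cells (OD 0.005) were exposed 24hr at 30C to compounds at several concentrations, then absorbance at 600 nm was recorded.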", "values": [{"smiles": "CC(C)C[C@H](CO)Nc1nc(N(C)c2cccc(Cl)c2)c2ncn(C(C)C)c2n1", "Potency": "inconclusive: 39.8 µM [activator, single point]"}, {"smiles": "CCOc1ccc(CNC(=O)C2CCN(Cc3cc4ccccc4n3Cc3ccccc3C)CC2)cc1", "Potency": "inconclusive: 22.4 µM [activator, partial curve]"}, {"smiles": "CCc1nc2c(OCc3cc(Cl)cc(Cl)c3)cccn2c1N(C)C(=O)c1ccc(OC)cc1", "Potency": "inconclusive: 35.5 µM [activator, single point]"}, {"smiles": "COc1ccc(C2OC(CCc3ccccc3)CC3=C2C(=O)OC(C)(C)O3)cc1", "note": "(centres undefined)", "Potency": "inconclusive: 50.1 µM [activator, single point]"}, {"smiles": "Cc1ccc(OCC(=O)Nc2cc(-c3cccc(C)c3)nn2-c2ccccc2)cc1", "growth rescue (activation)": "inactive: 2.86%"}, {"smiles": "Cc1ccc2nc(N(Cc3cccnc3)C(=O)c3cccs3)sc2c1", "growth rescue (activation)": "inactive: -9.57%"}, {"smiles": "O=C(CC1SC(=O)N(c2ccccc2)C1=O)Nc1ccccc1", "note": "(centres undefined)", "Potency": "inconclusive: 56.2 µM [activator, partial curve, poor fit]"}, {"smiles": "Cc1ccc(S(=O)(=O)N2CCCCC2CCNC(=O)C(=O)NCc2ccccc2C)cc1", "note": "(centres undefined)", "Potency": "inconclusive: 15.8 µM [activator, partial curve]"}, {"smiles": "COc1cc(/C=C2\\SC(=S)N(CC(=O)Nc3ccccn3)C2=O)cc(OC)c1OC", "growth rescue (activation)": "inactive: 28.3%"}, {"smiles": "CN(C(=O)c1ccc(NC(=O)Cc2cccc(NC(=O)C3CCN(C(=O)CCc4ccccc4)CC3)c2)cc1)C1CCCC1", "Potency": "inconclusive: 28.2 µM [activator, single point]"}, {"smiles": "CCOc1ccc(C(=O)Nc2ccc(-c3nc4ccccc4s3)c(C)c2)cc1OCC", "growth rescue (activation)": "inactive: -21.3%"}, {"smiles": "Cc1cccc(N2CCN(C(=O)c3ccc4c(c3)NC(=O)C(CSCc3cccc(F)c3)N4)CC2C)c1", "note": "(centres undefined)", "Potency": "inconclusive: 7.94 µM [activator, partial curve]"}, {"smiles": "Cc1cc(C)cc(NC(=O)CN2C(=O)CCc3cc(S(=O)(=O)N4CCCCC4)ccc32)c1", "Potency": "inconclusive: 3.55 µM [activator, full curve]"}, {"smiles": "COc1ccccc1N1CCN(C(=O)Cn2c(=O)n3nc(-c4cccc(C)c4)nc3c3ccccc32)CC1", "growth rescue (activation)": "inactive: -29%"}, {"smiles": "N#Cc1ccccc1OCC(=O)N(Cc1nnc(-c2ccccc2Cl)o1)C1CC1", "Potency": "inconclusive: 31.6 µM [activator, partial curve, poor fit]"}, {"smiles": "COc1ccc(/C=C/C(=O)Nc2ccc(S(=O)(=O)N3CCOCC3)cc2)c(OC)c1", "Potency": "inconclusive: 31.6 µM [activator, single point]"}, {"smiles": "Cc1ccc(NC(=O)c2cc(S(=O)(=O)NC3CCCCCC3)ccc2F)cc1F", "Potency": "inconclusive: 17.8 µM [activator, partial curve, poor fit]"}, {"smiles": "CCn1cc(CCCC(=O)NCc2cccc(OC)c2)c2ccccc21", "Potency": "inconclusive: 44.7 µM [activator, single point]"}, {"smiles": "O=[N+]([O-])c1cnc2ccccn12", "growth rescue (activation)": "inactive: -6.57%"}, {"smiles": "COc1ccc2[nH]cc(CCN=C(NC(=O)c3cccc(Cl)c3)Nc3nc(C)cc(C)n3)c2c1", "Potency": "inconclusive: 17.8 µM [activator, partial curve]"}, {"smiles": "CC(C)c1nnc2n1N=C(c1ccc(Cl)cc1)CS2", "growth rescue (activation)": "inactive: 4.02%"}, {"smiles": "O=C(NC1CCN(Cc2ccccc2)CC1)C1CCCN(S(=O)(=O)c2cccc3nonc23)C1", "note": "(centres undefined)", "Potency": "inconclusive: 3.98 µM [activator, partial curve, poor fit]"}, {"smiles": "CS(=O)(=O)C1=NSC2=NC(=O)/C(=C\\c3ccc(OS(=O)(=O)c4ccccc4)cc3)C(=N)N21", "Potency": "inconclusive: 6.31 µM [activator, partial curve, poor fit]"}, {"smiles": "Fc1ccccc1Cn1cc(C(=S)N2CCOCC2)c2ccccc21", "growth rescue (activation)": "inactive: 31%"}, {"smiles": "COc1ccc(S(=O)(=O)N2CCC(C(=O)NC(C)c3ccccc3)CC2)cc1", "note": "(centres undefined)", "growth rescue (activation)": "inactive: -16.5%"}, {"smiles": "Cc1ccc(C(=O)N(C)CC(=O)Nc2ccc(Cl)c(C(F)(F)F)c2)cc1S(=O)(=O)N1CCCCC1", "Potency": "inconclusive: 15.8 µM [activator, partial curve]"}, {"smiles": "COc1ccc(C(=O)c2cnc3ccc(C)cc3c2S(=O)(=O)c2ccccc2)cc1", "Potency": "inconclusive: 25.1 µM [activator, partial curve, poor fit]"}, {"smiles": "C#CCOCCOCCOCCNc1nc(N2CCN(C(=O)[C@H](CCCCN)n3cc([C@@H](N)C(C)CC)nn3)CC2)nc(N2CCN(C(=O)[C@H](CCCCN)n3cc([C@@H](N)C(C)CC)nn3)CC2)n1", "note": "(some centres undefined)", "growth rescue (activation)": "inactive: 18.7%"}, {"smiles": "O=C(Nc1ccccc1)Nc1nc2ncccn2c1-c1ccc(C(F)(F)F)cc1", "growth rescue (activation)": "inactive: -9.43%"}, {"smiles": "CN(C)c1ccc(C=Nc2ccccc2C(N)=O)cc1", "growth rescue (activation)": "inactive: 16%"}, {"smiles": "Fc1cccc(Cl)c1CNC(c1ccccc1)c1ccccc1", "growth rescue (activation)": "inactive: -3.19%"}, {"smiles": "CC(C)CC1C(=O)N(Cc2cn(CC3CCCCC3)nn2)CCS(=O)(=O)N1Cc1ccc(-c2cccc(C#N)c2)cc1", "note": "(centres undefined)", "Potency": "inconclusive: 11.2 µM [activator, partial curve, poor fit]"}, {"smiles": "O=C1Cc2ccccc2C(=O)N1OCc1ccc(Cl)cc1", "growth rescue (activation)": "inactive: -2.83%"}, {"smiles": "COc1ccc(CCNC(=O)c2ccc(Cl)c(S(=O)(=O)N3CCCC3)c2)cc1", "Potency": "inconclusive: 22.4 µM [activator, single point]"}, {"smiles": "CCC(C)N(C(=O)c1ccc(CNC(=O)c2cccc(Br)c2)cc1)C(C)CC", "note": "(centres undefined)", "Potency": "inconclusive: 20 µM [activator, single point]"}, {"smiles": "N#CC1(NC(=O)COC(=O)Cc2c[nH]c3ccccc23)CCCCC1", "growth rescue (activation)": "inactive: -15%"}, {"smiles": "CCOC(=O)Cn1cc(C(=O)c2cccs2)c2ccccc21", "growth rescue (activation)": "inactive: -0.746%"}, {"smiles": "CCOc1ccccc1OCC(=O)OC(C)C(=O)Nc1ncc(Cl)cc1Cl", "note": "(centres undefined)", "growth rescue (activation)": "inactive: -12.8%"}, {"smiles": "COc1ccc(OC)c(C2=NS(=O)(=O)N(C)C(C(=O)Nc3ccc(C(C)=O)cc3)=C2)c1", "Potency": "inconclusive: 28.2 µM [activator, single point] and inconclusive: 39.8 µM [activator, single point]"}, {"smiles": "COc1cc(CN(C(=O)COc2ccc(Cl)cc2)c2ccccn2)cc(OC)c1OC", "growth rescue (activation)": "inactive: 40.3%"}, {"smiles": "CS(=O)(=O)C1=C(O)C(=O)N(CCCC(=O)O)C1c1ccccc1F", "note": "(centres undefined)", "growth rescue (activation)": "inconclusive: 76.3% [activator]"}, {"smiles": "CCc1nc2ccc(C(=O)Nc3cc(-c4ccccc4)ccc3OC)cn2c1N(CC)Cc1cccc(Br)c1", "Potency": "inconclusive: 50.1 µM [activator, single point]"}, {"smiles": "COc1ccc(C(=O)/C=C/c2ccc(OCc3ccccc3)cc2)cc1CSCC(=O)O", "Potency": "inconclusive: 17.8 µM [activator, partial curve]"}, {"smiles": "COCCNC(=O)CCCn1c(=O)c2cc(OC)c(OC)cc2n(CC(=O)Nc2ccc(C)c(F)c2)c1=O", "growth rescue (activation)": "inactive: 11.9%"}, {"smiles": "CCCCCn1nnnc1C1(C)CCCC(=O)N1Cc1ccco1", "note": "(centres undefined)", "growth rescue (activation)": "inactive: -21.2%"}, {"smiles": "O=C(c1cccc(-n2cccc2)c1)N1CCN(S(=O)(=O)c2ccccc2Br)CC1", "Potency": "inconclusive: 44.7 µM [activator, single point]"}, {"smiles": "O=C(Nc1cc2c3c(c1)C1CCCC1CN3CC1CCCC21)c1ccc([N+](=O)[O-])cc1", "note": "(centres undefined)", "Potency": "inconclusive: 31.6 µM [activator, partial curve, poor fit]"}, {"smiles": "COc1cccc(C(=O)Nc2nnc(-c3ccc(F)cc3)o2)c1", "growth rescue (activation)": "inactive: -21.6%"}, {"smiles": "CCN1C(=O)[C@H]2[C@@H](c3ccc(-c4ccc(Cl)c(Cl)c4)c(OC)c3)N3CCCC[C@@]3(C(=O)OC)[C@H]2C1=O", "Potency": "active: 25.1 µM"}, {"smiles": "Cc1cc(C)c2c(n1)SCC(=O)N2CC(=O)Nc1ccccc1C", "growth rescue (activation)": "inactive: 15.3%"}, {"smiles": "COCC(=O)N1[C@H](CO)[C@@H](c2ccc(-c3cccnc3)cc2)[C@H]1CN(C)S(=O)(=O)c1ccccc1[N+](=O)[O-]", "growth rescue (activation)": "inactive: 36.1%"}, {"smiles": "COc1ccc(Nc2nc3cc(-c4ccccc4C)sc3c(=O)n2C)cc1OC", "Potency": "inconclusive: 28.2 µM [activator, single point]"}, {"smiles": "COc1cccc2cc(C(=O)C3=C(O)C(=O)N(Cc4ccco4)C3c3cccnc3)oc12", "note": "(centres undefined)", "Potency": "inconclusive: 28.2 µM [activator, single point]"}, {"smiles": "CCSc1nnc(NC(=O)c2nc(S(=O)(=O)Cc3ccc(F)cc3)ncc2Cl)s1", "Potency": "inconclusive: 50.1 µM [activator, single point]"}, {"smiles": "COc1cccc(-n2c(C)cc(/C=C3\\C(=N)N4N=C(CC(=O)N5CCOCC5)SC4=NC3=O)c2C)c1", "Potency": "inconclusive: 15.8 µM [activator, partial curve]"}, {"smiles": "COc1ccc(OCCn2c(N)nc3ccccc32)cc1", "growth rescue (activation)": "inactive: 33.3%"}, {"smiles": "Cc1cc(C(=O)COC(=O)c2n[nH]c3ccccc23)c(C)n1CC1CCCO1", "note": "(centres undefined)", "Potency": "inconclusive: 31.6 µM [activator, single point]"}, {"smiles": "O=C(CC1C[C@H](C(=O)N2CCCCC2)[C@@]2(CCc3ccccc3)c3[nH]c4ccccc4c3CCN2C1=O)NCCCn1ccnc1", "note": "(some centres undefined)", "Potency": "inconclusive: 12.6 µM [activator, partial curve]"}, {"smiles": "CC(=O)N1CCN(C2=NC(=O)/C(=C/c3ccc(OS(=O)(=O)c4ccccc4)cc3)S2)CC1", "growth rescue (activation)": "inactive: 19%"}, {"smiles": "CCN=C1Cn2c(nc3scc(-c4ccccc4)c3c2=O)CN1CC", "Potency": "inconclusive: 15.8 µM [activator, partial curve]"}, {"smiles": "Cc1ccc(NC(=O)Cn2c(=O)n(Cc3ccco3)c(=N)c3c4c(sc32)COC(C)(C)C4)cc1", "Potency": "inconclusive: 50.1 µM [activator, single point]"}, {"smiles": "Cc1ccc(S(=O)(=O)N2CCN(C(=O)COC(=O)CCOc3ccccc3)CC2)c(C)c1", "Potency": "inconclusive: 35.5 µM [activator, partial curve, poor fit]"}, {"smiles": "O=C(CCC(=O)c1cccs1)NCc1cccc(C(F)(F)F)c1", "Potency": "inconclusive: 22.4 µM [activator, partial curve, poor fit]"}, {"smiles": "OC(c1cccc(Cl)c1)c1ncc(-c2ccc(Oc3ccccc3)cc2)[nH]1", "note": "(centres undefined)", "Potency": "inconclusive: 31.6 µM [activator, single point]"}]}]}
